Laboratory results as given in PMC4242493.
This is one part of the list. The list includes weakly bound sequences.

What follows are sequences tested against MaxL homodimer (UniProt P61244) (assay: universal protein-binding microarray (PBM)). Conditions: PBS-based mixture, 10 nM His-tagged protein dimer, 2% milk, 200 ng/uL BSA, 50 ng/uL salmon testes DNA, 0.02% TX-100; detection with Alexa 488 anti-His …; high values mean tight binding; most listed sequences are background and not binding sites; double strand, one strand shown.
Sequence of UniProt P61244 (P61244 whole entry): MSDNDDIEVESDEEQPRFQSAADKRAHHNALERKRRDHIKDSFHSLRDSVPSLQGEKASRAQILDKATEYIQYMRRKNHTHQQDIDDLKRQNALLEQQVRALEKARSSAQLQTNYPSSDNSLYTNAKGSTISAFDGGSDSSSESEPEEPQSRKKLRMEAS
CAGTGCAG was tested, and the binding signal (normalized occupancy) was 0.0706. AACCATTG gave a binding signal (normalized occupancy) of 0.0747. AGGTAGCG was tested, and the binding signal (normalized occupancy) was 0.0722. ACAGCCCA was tested, and the binding signal (normalized occupancy) was 0.0784. ATCAGTCA showed a binding signal (normalized occupancy) of 0.0756. In the case of AAAGAGTT, the binding signal (normalized occupancy) is reported as 0.0687. Sequence CCTAGTAC has a binding signal (normalized occupancy) of 0.0781. CGCTGCAA gave a binding signal (normalized occupancy) of 0.0735. For CATTGCAC, the binding signal (normalized occupancy) was 0.0792. For GTGCATAA, the binding signal (normalized occupancy) was 0.0861. Sequence AATATTGC has a binding signal (normalized occupancy) of 0.073. GCCCCGAC was tested, and the binding signal (normalized occupancy) was 0.0707. Work on AATTGAAG yielded a binding signal (normalized occupancy) of 0.0708. Work on CTTAACCC yielded a binding signal (normalized occupancy) of 0.0738. With CCAGGGTA the binding signal (normalized occupancy) was 0.0747. With AAGATTCA the binding signal (normalized occupancy) was 0.0761. ATCGTAGC was tested, and the binding signal (normalized occupancy) was 0.0757. Sequence ATAGATGC has a binding signal (normalized occupancy) of 0.075. Sequence ATCACCTA has a binding signal (normalized occupancy) of 0.0828. Work on AACCTTAT yielded a binding signal (normalized occupancy) of 0.0748. AACGGGAA gave a binding signal (normalized occupancy) of 0.0728. In the case of GATACCGA, the binding signal (normalized occupancy) is reported as 0.0705. Sequence AAAGAGGC has a binding signal (normalized occupancy) of 0.072. ACCGGCGC was tested, and the binding signal (normalized occupancy) was 0.0689. CTACCTGC gave a binding signal (normalized occupancy) of 0.0706. GCTCGAGA showed a binding signal (normalized occupancy) of 0.0767. Sequence CATAACCC has a binding signal (normalized occupancy) of 0.0804. AACACCGG was tested, and the binding signal (normalized occupancy) was 0.0717. With AGCATCTG the binding signal (normalized occupancy) was 0.0764. In the case of ATGAGTAG, the binding signal (normalized occupancy) is reported as 0.0813. For CCACCCCG, the binding signal (normalized occupancy) was 0.0838. ACGACCGT was tested, and the binding signal (normalized occupancy) was 0.0705. In the case of CGCTGCTA, the binding signal (normalized occupancy) is reported as 0.0695. Sequence AACCGACG has a binding signal (normalized occupancy) of 0.0669. With GATAATAA the binding signal (normalized occupancy) was 0.0816. Sequence CACTGTCG has a binding signal (normalized occupancy) of 0.0711. CACAATAA showed a binding signal (normalized occupancy) of 0.0762. Sequence CAGGTTAG has a binding signal (normalized occupancy) of 0.0732. Work on GGAAAAAA yielded a binding signal (normalized occupancy) of 0.0713. AACAAAAA gave a binding signal (normalized occupancy) of 0.0685. CATAGAGG was tested, and the binding signal (normalized occupancy) was 0.0793. Sequence CATGCGAG has a binding signal (normalized occupancy) of 0.0975. GTACGATA gave a binding signal (normalized occupancy) of 0.0786. Sequence ATTAGTTA has a binding signal (normalized occupancy) of 0.078. For GCAGCCAA, the binding signal (normalized occupancy) was 0.0742. Sequence AATGCCTA has a binding signal (normalized occupancy) of 0.0747. GTGTTGGA showed a binding signal (normalized occupancy) of 0.0806. In the case of CCAGCTTC, the binding signal (normalized occupancy) is reported as 0.0657. Sequence CGACCGAC has a binding signal (normalized occupancy) of 0.076. In the case of CGGTTACG, the binding signal (normalized occupancy) is reported as 0.071. For ACACTAAT, the binding signal (normalized occupancy) was 0.0825. ATTGTCCC showed a binding signal (normalized occupancy) of 0.074. CATATGCC was tested, and the binding signal (normalized occupancy) was 0.095. With AGAGGATG the binding signal (normalized occupancy) was 0.0826. AGTCATGG gave a binding signal (normalized occupancy) of 0.0855. With CCAGGTGC the binding signal (normalized occupancy) was 0.0833. GGCCGAAC showed a binding signal (normalized occupancy) of 0.067. For ACAAGCGA, the binding signal (normalized occupancy) was 0.0756. AGTGGTGA was tested, and the binding signal (normalized occupancy) was 0.0801. With CTACTCCC the binding signal (normalized occupancy) was 0.0756. AGATTGCC was tested, and the binding signal (normalized occupancy) was 0.0732. ACCGTAGC showed a binding signal (normalized occupancy) of 0.0736. ACACCAGA was tested, and the binding signal (normalized occupancy) was 0.0822. Sequence AGCTGAAG has a binding signal (normalized occupancy) of 0.0723. GCTCGCAA gave a binding signal (normalized occupancy) of 0.0734. For CGATAGTC, the binding signal (normalized occupancy) was 0.0725. CTTATTAC was tested, and the binding signal (normalized occupancy) was 0.0796. In the case of AGAAAAAC, the binding signal (normalized occupancy) is reported as 0.0758. For AGTCAAGG, the binding signal (normalized occupancy) was 0.074. CCAGGCGC showed a binding signal (normalized occupancy) of 0.0763. For GTATGAAC, the binding signal (normalized occupancy) was 0.0809. GGTGCACC was tested, and the binding signal (normalized occupancy) was 0.0777. For ACTTCTGA, the binding signal (normalized occupancy) was 0.073. For CGGCGATA, the binding signal (normalized occupancy) was 0.0715. GGATGCTA showed a binding signal (normalized occupancy) of 0.0763. For ACGGACTC, the binding signal (normalized occupancy) was 0.0707. Sequence ACCTCGGA has a binding signal (normalized occupancy) of 0.0702. Sequence AAGGGGCG has a binding signal (normalized occupancy) of 0.0757. ATTACAGG gave a binding signal (normalized occupancy) of 0.0787. TTATAGAA showed a binding signal (normalized occupancy) of 0.0824. ACCCATCG was tested, and the binding signal (normalized occupancy) was 0.0773. For CCGAAGTC, the binding signal (normalized occupancy) was 0.0667. In the case of AAGGCTGG, the binding signal (normalized occupancy) is reported as 0.0666. Sequence GAGCGGCA has a binding signal (normalized occupancy) of 0.0714. In the case of TACACCGA, the binding signal (normalized occupancy) is reported as 0.0797. For AGAAGTGC, the binding signal (normalized occupancy) was 0.0758. With CCGCGAGA the binding signal (normalized occupancy) was 0.0721. GGAACTCC gave a binding signal (normalized occupancy) of 0.068. CTAGCTTC showed a binding signal (normalized occupancy) of 0.0694. ATTACCAA was tested, and the binding signal (normalized occupancy) was 0.0717. AGGACATA was tested, and the binding signal (normalized occupancy) was 0.0758. In the case of TCGCTTAA, the binding signal (normalized occupancy) is reported as 0.077. In the case of CCGTCTTC, the binding signal (normalized occupancy) is reported as 0.0665. CGCTGCGC was tested, and the binding signal (normalized occupancy) was 0.0689. With ACAACTTG the binding signal (normalized occupancy) was 0.0751. With CTCCCCGA the binding signal (normalized occupancy) was 0.0706. ACCAATAG gave a binding signal (normalized occupancy) of 0.0687. CACAACTG showed a binding signal (normalized occupancy) of 0.075. For AACGGCGA, the binding signal (normalized occupancy) was 0.0682. CGTTCTCA gave a binding signal (normalized occupancy) of 0.0801. Sequence AAACATAA has a binding signal (normalized occupancy) of 0.0846. Work on GCAAGGAC yielded a binding signal (normalized occupancy) of 0.0681. In the case of TACGCCGA, the binding signal (normalized occupancy) is reported as 0.0717. For GACGTTCC, the binding signal (normalized occupancy) was 0.0707. In the case of CCTCTGCG, the binding signal (normalized occupancy) is reported as 0.0717. In the case of GTAGCGTA, the binding signal (normalized occupancy) is reported as 0.0735. Sequence AGTAGATA has a binding signal (normalized occupancy) of 0.0825. CGCGATGC was tested, and the binding signal (normalized occupancy) was 0.0665. AATTTCCT gave a binding signal (normalized occupancy) of 0.0744.
